Measured values reported in ChEMBL document CHEMBL5308541, “MAIP: An Open-Source Tool to Enrich High-Throughput Screening Output and Identify Novel, Druglike Molecules with Antimalarial Activity” (ACS Med Chem Lett, 2023).
The campaign covered roughly 150,000 compounds. About 540 (0.36%) showed an effect of 50% or more. The list shows a part of the results.

The compounds below were run on Plasmodium falciparum (assay: Primary screen in NF54 nanoGlo assay, in single point, at 2uM, 72h; a lower Z score goes with more inhibition). Settings: timepoint 72 hour.
Assay type: functional, Erythrocyte

Row | Compound | % Inhibition [%] | Z score
1 | CN(Cc1cc(O)c2cccc(F)c2n1)C1CCNCC1 | -6 | 1.16
2 | Cc1noc(-c2cccnc2N2CCC(c3c(C)[nH]c4ccccc34)CC2)n1 | 11 | -2.41
3 | CN1CCN(CCOc2ccccc2CN[C@H]2CCCN(C(=O)c3ccco3)C2)CC1 | -4 | 0.64
4 | Cc1nnc([C@H](C)Nc2cccc(Oc3ccc(C#N)cc3)c2)o1 | -3 | 0.5
5 | Oc1ccc(-c2ccnc3[nH]ccc23)cc1Cl | 1 | -0.16
6 | Cc1cc(NC(=O)N2Cc3cnn(CCO)c3C2)n(C2CCCC2)n1 | -6 | 1.25
7 | Cc1ccc(N2N=C(C(=O)Nc3ccc4c(c3)CN(CCC(C)C)C4)NCC2=O)cc1 | 2 | -0.38
8 | COc1cc(C(=O)N[C@H]2COCC2(C)C)cc(OC)c1C(C)C | -14 | 2.12
9 | Cc1ncsc1CN(C)S(=O)(=O)N1CCC(C)CC1 | 3 | -0.68
10 | CC(C)c1nc(N[C@H]2CCCN(CC(F)(F)F)C2)nc(N(C)C)n1 | -6 | 0.84
11 | CCn1c(C)cc(C)c(C(=O)N(C)C2COCC2O)c1=O (stereo not drawn) | -4 | 0.77
12 | CCN1CCN(CC(=O)N2CCC(O)(CN3CCCC3)CC2)CC1 | -1 | 0.28
13 | CN1CCN(C2(CNc3nc4c(c(=O)[nH]3)CCNC4)CCCCC2)CC1 | -6 | 1.23
14 | Cc1ccc(C)c2[nH]c(-c3ccc(Oc4cnccn4)cc3)nc12 | -18 | 3.03
15 | NS(=O)(=O)c1cnc(N[C@H]2CCCN(C3CCCCC3)C2)s1 | -7 | 1.32
16 | O[C@@]1(CN2CCC3(CC2)CNc2ccccc23)CCCNC1 | -2 | 0.44
17 | O=C(OCc1ccccc1)C1C2CCC(C2)C1NC1CCN(CC(F)(F)F)CC1 (stereo not drawn) | -12 | 2.49
18 | C[C@@H]1CN(c2ccc(NC(=O)c3cc(-c4ccccc4)[nH]n3)cc2)C[C@H](C)O1 | -4 | 0.72
19 | NC(=O)[C@H]1CCCN(CCCNc2nc(-c3ccccc3)nc3ccccc23)C1 | 2 | -0.31
20 | Nc1cc(C(=O)N2CCC(CNC(=O)C[C@H]3CCc4ccccc43)CC2)[nH]n1 | -11 | 1.97
21 | Cn1ccc2ccc(CN3CCCN(C4CCCC4)CC3)cc21 | -6 | 1.12

Row | Compound | % Inhibition [%] | Z score
22 | CC(=O)c1cc(C(=O)N(C)C[C@@H]2C[C@H](F)CN2c2nnc(C)o2)n(C)c1 | 0 | 0.08
23 | COc1ccc(F)c(F)c1CN(C)Cc1ncc[nH]1 | -14 | 2.79
24 | CN(CCN1C(=O)c2ccccc2C1=O)C(=O)c1cc2occc2[nH]1 | -11 | 1.95
25 | CC(C)NC(=O)c1ccnc(NCCCc2nc3cc(Cl)ccc3[nH]2)c1 | -8 | 1.24
26 | O[C@@H]1CCCCC[C@H]1Nc1cccc(-n2ccnc2)n1 | -11 | 1.62
27 | Clc1cccc(-c2ccnc(NCc3cc4n(n3)CCCNC4)n2)c1 | 0 | 0.01
28 | CC(=O)N1CC[C@H](Nc2cc(NCC3CC3)ncn2)C1 | -1 | 0.13
29 | CN(Cc1ccc2ncccc2c1)C(=O)[C@@H](c1ccc(F)cc1)N1CCCCC1 | -13 | 2.7
30 | CN(C)C1CCN(CCNC2CCC3CN(Cc4ccccc4)CC32)CC1 (stereo not drawn) | 18 | -3.94
31 | Cc1nc(Nc2ccc(N)cc2)cc(NC2CCCCC2)n1 | -8 | 1.21
32 | Cc1c(NC(=O)CN2CC3CN(C(=O)Cn4ncnn4)CC3(CO)C2)cnn1C (stereo not drawn) | -6 | 1.06
33 | CCCCN1CCN(C(=O)c2ccc(-c3ccc4nc[nH]c4c3)cc2)CC1 | -1 | 0.13
34 | COCCN1CCC(Nc2nccnc2NC2CCN(CCOC)CC2)CC1 | 1 | -0.15
35 | Fc1cccc(CCNc2ccc3ccccc3n2)c1 | -3 | 0.46
36 | COc1ccc(-c2ccc(C(=O)O)c(N3CCC[C@H](CCC(N)=O)C3)n2)cc1 | -8 | 1.49
37 | c1cn(CCCN2CCCC[C@@H]2CCN2CCOCC2)cn1 | -2 | 0.26
38 | N[C@H]1C[C@H](c2cc(NCc3ccc4c(c3)CCCO4)ncn2)C1 | -9 | 1.61
39 | COCCN1CC[C@H](CN(C)C(=O)CN2CCCN(C)CC2)C1 | -8 | 1.4
40 | CN(C)C1(CNc2nc(C(F)(F)F)nc3cc4c(cc23)OCO4)CCCCCC1 | 54 | -8.21
41 | FC(F)(F)c1cc(Nc2ccc(-c3cncnc3)cc2)nc(-c2ccncc2)n1 | -11 | 2.38
42 | CCc1ccc2nc(-c3c(C)noc3C)[nH]c2c1 | -2 | 0.42

Row | Compound | % Inhibition [%] | Z score
43 | CN[C@@H](CO)c1cccc(-c2cc(CN3CCCC3)ccc2F)c1 | 4 | -0.77
44 | Cc1cc(NCc2cc(-c3cccc(F)c3)no2)nc(N)n1 | 4 | -0.94
45 | Cn1cc(CCN2CCC(N3CCN(c4cccc(Cl)c4)CC3)CC2)nn1 | -4 | 0.56
46 | Cc1ncsc1CCCNC(=O)c1cc(=O)n(-c2ccccc2)[nH]1 | -1 | 0.1
47 | O=C(CN1CCCN(c2cncc(OCC3CCCC3)n2)CC1)N1CCCC1 | -4 | 0.66
48 | O=C1CC[C@H](NCc2nc3cc(Cl)ccc3[nH]2)CN1Cc1ccccc1 | -8 | 1.64
49 | CS(=O)(=O)C1(C(=O)N2CC[C@H](Nc3ccc4nccn4n3)C2)CCCC1 | 0 | -0.05
50 | CS(=O)(=O)N1CCN(CCN[C@H]2CCOC23CCCC3)CC1 | -2 | 0.3
51 | CS(=O)(=O)Cc1ccc(N2CC3CN(CC4CC4)CC3(CO)C2)nc1 (stereo not drawn) | 1 | -0.15
52 | Cc1nn(-c2ccccn2)c(C)c1CCNS(=O)(=O)c1c(F)cccc1F | -9 | 1.61
53 | Cc1nc2ccc(C(=O)N[C@@H](C)c3nc(CC(C)C)no3)cc2o1 | -8 | 1.54
54 | CC1CCC(C)N1CCN1CCN(CCn2ccc3cc(Cl)ccc32)CC1 (stereo not drawn) | 3 | -0.62
55 | Cc1cc(-c2nc(C(=O)NC3CCN(CC(F)F)CC3)co2)ccn1 | -9 | 1.86
56 | OCCCNc1nn2cc(-c3ccc(F)cc3)nc2s1 | 41 | -7.13
57 | CN1CCOC2(CCN(c3cc(C(F)(F)F)nc(N4CCCC4)n3)CC2)C1 | -9 | 1.59
58 | CC(=O)NC1CCN(C(=O)c2cccc(-c3ccc4occc4c3)c2)CC1 | 5 | -0.82
59 | CC1=CC(C)CC(CNC2CCN(c3ccccn3)C2)C1 (stereo not drawn) | -7 | 1.45
60 | Cc1n[nH]c(=O)nc1Nc1ccc(Oc2ccccc2)cc1 | 5 | -1.09
61 | N#CC1(c2ccc(-c3ccc(C(=O)N[C@H]4CCOC4)cc3)cc2)CCCC1 | -11 | 1.9
62 | Clc1cccc(-c2noc3ncnc(N4CCC(N5CCCCC5)CC4)c23)c1 | 3 | -0.44
63 | Cc1n[nH]c(C)c1-c1ccc(C(F)(F)CN)cc1 | 12 | -1.78

Row | Compound | % Inhibition [%] | Z score
64 | Cc1c(CNC2CCN(c3ccc(CC(=O)N4CCC(O)CC4)cc3)CC2)cnn1C | -10 | 1.78
65 | Nc1c(F)cccc1CN1CCC(Oc2ncccc2F)CC1 | 4 | -0.82
66 | N#Cc1ccccc1-c1cccc(C(=O)N2CCC[C@H](CN3CCCC3)C2)c1 | 2 | -0.33
67 | CCN1CCN(C(=O)c2ccc(N3CCC(NCc4nc5cc(F)ccc5[nH]4)CC3)cc2)CC1 | -7 | 1.3
68 | Clc1ccc(-c2noc3ncnc(N(CCCN4CCOCC4)Cc4ccco4)c23)cc1 | -12 | 2.05
69 | N#Cc1ccc(CNC2CCN(Cc3ccccc3F)CC2)cc1 | -6 | 1.03
70 | COC(=O)CCC1CN(C2CCN(C)CC2)CCC1N1CCN(C)CC1 (stereo not drawn) | -11 | 1.99
71 | O=C(Nc1cccc(CN2CCCCC2)c1)C1CN2CCCN1CC2 (stereo not drawn) | -7 | 1.31
72 | Cc1ccc(CNc2nc(CN3CCCC[C@@H]3CCO)nc3ccccc23)cc1 | -5 | 0.81
73 | O=C(Cc1cc2ccccc2[nH]c1=O)Nc1cc(Cl)ccc1N1CCCCC1 | -1 | 0.18
74 | CN(C)CCCN=C(N)Nc1ccccc1 | -3 | 0.65
75 | N#Cc1ccc(C(F)(F)F)c(NCCc2nnc[nH]2)c1 | -4 | 0.77
76 | Cc1ccc2nc(Nc3ccc(N(C)C)cc3)c(Nc3ccc(N(C)C)cc3)nc2c1 | 13 | -2.26
77 | Nc1nc(NCc2ccc(N3CCOCC3)cc2)c2cn[nH]c2n1 | -8 | 1.41
78 | Cc1cc2c(cc1CN1CCN(C3CCNCC3)C[C@@H](O)C1)OCO2 | 3 | -0.64
79 | O=C(N[C@@H]1CCC[C@H]1OCc1ccccc1)[C@@H]1CCCN1C1CCNCC1 | -9 | 1.48
80 | Fc1cc(CCNc2nc(C(F)(F)F)nc3ccccc23)c2c(c1)COCO2 | -7 | 1.2
81 | O=C(c1cc(-c2ccc(F)cc2)n[nH]1)N1CCN(c2nc(-c3ccsc3)cs2)CC1 | 0 | -0.04
82 | C[C@H](NC(=O)c1nnc2ccccc2c1O)c1cccc(N2CCCC2)c1 | -1 | 0.17
83 | NC(=O)c1n[nH]c2ccc(NC(=O)c3cncc(-c4ccccc4)c3)cc12 | 13 | -2.65
84 | c1cnc(OC2CCN(c3nccnc3OC3CCC3)CC2)cn1 | 0 | 0.06
